Experimental findings from PubChem BioAssay AID1346428 (National Center for Advancing Translational Sciences (NCATS), 2018) are described below.

Where “and” joins values, the source holds several entries; their conditions need not be identical. Equal entries are not always repeated. Among all 48,000 compounds or so, about 1,200 (2.5%) were called active. Not shown: some 2% with an inconclusive outcome.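 How the source made its calls: active means activation of at least 60% and not above a set upper limit (about 1 call in 100 departs from these limits); inconclusive means activation of 40% to 60%, or above that upper limit; inactive means activation under 40%.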 The list shows a part of the results.

Sequence of UniProt O75388 (O75388 whole entry, looked up): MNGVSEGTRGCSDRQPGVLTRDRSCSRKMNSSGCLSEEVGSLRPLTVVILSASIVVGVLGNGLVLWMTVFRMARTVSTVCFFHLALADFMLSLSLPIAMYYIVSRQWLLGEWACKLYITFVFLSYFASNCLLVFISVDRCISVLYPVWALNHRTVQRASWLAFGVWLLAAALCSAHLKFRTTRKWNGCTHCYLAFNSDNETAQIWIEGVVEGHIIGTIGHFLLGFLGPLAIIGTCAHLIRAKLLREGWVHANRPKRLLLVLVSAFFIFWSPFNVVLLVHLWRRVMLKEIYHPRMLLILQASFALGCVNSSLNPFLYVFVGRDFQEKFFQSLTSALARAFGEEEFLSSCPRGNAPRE

The target of the assay is Probable G-protein coupled receptor 32 (Homo sapiens) (UniProt O75388). Put plainly: qHTS for Agonists of Human Resolvin D1 Receptor DRV1. Further: 0% is about no effect. The settings on record: CHO-K1 GPR32 beta-arrestin PathHunter luminescence, 90 min; at 76.9 µM; active compounds read high; zero percent set by DMSO-only wells. A digest of the protocol:
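Readings come from a cell-based beta-arrestin complementation format: CHO-K1 GPR32 stable cells (2,500/well) treated 90 min with compounds, then beta-Gal substrate added for 1 h before chemiluminescence imaging.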
A general note: Quantitative high-throughput screening tests each substance at several concentrations.
`COc1ccc2oc(=O)c(-c3nnc(-c4ccc(C)cc4)o3)cc2c1`: the activation was inactive: -12.5%.

Turning to `O=C(CSc1oc(-c2ccccc2)nc1S(=O)(=O)c1ccc(Cl)cc1)c1ccccc1`, the activation is inactive: -16.5%.

In the case of `Cc1ccc2c(=O)cc(C(=O)Nc3ccc(S(=O)(=O)Nc4onc(C)c4C)cc3)oc2c1C`, the activation is inactive: 0.341%. As for `Cc1ccc(-n2cc(C(=O)Oc3ccc(F)cc3)c3ccccc3c2=O)cc1`, the figure is inactive: -13.5%; as for `O=C(CC1C(=O)N(c2ccc(F)cc2)C(=O)N1Cc1ccc2c(c1)OCO2)Nc1ccc(Cl)cc1` (configuration not stated), inactive: 32.2%. To `Cc1cc(C)nc(-n2nc(C)c3c2N(Cc2ccccc2)C(=O)CC3c2ccc(Cl)cc2)n1` (configuration not stated) belongs inactive: -18.9%; to `Cc1c(Cl)cccc1NS(=O)(=O)c1ccc(-c2cnc(C3CC3)o2)cc1`, inactive: -4.23%. To `CCN(C(=O)Cn1c(=O)n(-c2ccccc2)c(=O)c2ccc(C(=O)NCc3ccc4c(c3)OCO4)cc21)c1cccc(C)c1` belongs inactive: -3.07%; to `O=C(CCn1c(=O)c2cccn2c2cccnc21)Nc1ccccc1C(F)(F)F`, inactive: -8.07%; to `CCC(=O)N1c2ccccc2CC1C(=O)NCc1cc(OC)ccc1OC` (configuration not stated), inactive: 21%. Take `Cc1cc(C)cc(OCC(=O)Nc2c(C(=O)c3ccccc3)oc3ccccc23)c1`: the activation is inactive: -9.14%. To `CCCCn1cnc2cc(NCc3ccc(OCC)cc3)ccc21` belongs inactive: -55.2%; to `CC(C)c1ccc(NC(=O)c2cc(S(=O)(=O)N(C)C3CCCCC3)ccc2F)cc1`, inactive: -22.4%.

As to `C[C@@H](NC(=O)/C(C#N)=C/c1ccc(O)c(O)c1)c1ccccc1`, the activation was inactive: -23.3%. As for `CCOc1ccc(NC(=O)c2cc(S(=O)(=O)N3CCc4ccccc43)ccc2F)cc1`, the figure is inactive: -14.2%. On to `CCCCCCCCCCCCSCCOCCO`, for which the activation was inactive: -7.19%.

Turning to `O=C(c1ccco1)N(Cc1cccnc1)c1nc2c(F)cc(F)cc2s1`, the activation is inactive: -20%. As for `CCc1ccccc1NC(=O)Cn1cc(S(=O)(=O)N2CCCC2)c(S(=O)(=O)N2CCCC2)c1`, the figure is inactive: 1.28%; as for `CCOCCCNC(=O)C(c1ccccc1)N(Cc1ccc2c(c1)OCO2)C(=O)c1ccc(NC(C)=O)cc1` (configuration not stated), inactive: -8.9%; as for `Cc1ccccc1CNC(=O)c1ccc2nc(SCc3ccc(F)cc3)n(C)c2c1`, inactive: -6.27%.

On to `COc1ccccc1NC(=O)CSc1nncn2c1cc1sccc12`, for which the activation is inactive: -2.57%. To `C[C@]12CC[C@@H]3c4ccc(O)cc4C[C@@H](CCCCCCCCCS(=O)CCCC(F)(F)C(F)(F)F)[C@H]3[C@@H]1CC[C@@H]2O` (some centres not stated) belongs inactive: -9.6% and inactive: -27.1%; to `CCCOc1ccc(-c2cccc(NS(=O)(=O)c3ccccc3)c2)nn1`, inactive: -10.5%. As for `Cc1ccccc1CN1C(=O)c2ccccc2S(=O)c2ccc(C(=O)NCc3ccc(Cl)cc3)cc21` (configuration not stated), the figure is inactive: -23.3%; as for `CCc1ccccc1NC(=O)CN(c1ccccc1)S(=O)(=O)c1ccsc1C(=O)OC`, inactive: -11.1%. As for `O=C(NCc1ccc2c(c1)OCO2)c1ccc2c(c1)N(Cc1ccccc1F)C(=O)c1ccccc1S2`, the figure is inactive: -18.4%. On to `Cc1ccc2cccc(NC(=O)c3ccc(OC(C)C)cc3)c2n1`, for which the activation was inactive: -8.49%. For `Cc1c(Cl)cccc1NC(=O)c1ccc2c(c1)CCCN2S(C)(=O)=O`, the activation was inactive: 20.5%. As for `CC(C)c1ccc(OCC(=O)NCCS(=O)(=O)N2CCN(c3ccc(F)cc3)CC2)cc1`, the figure is inactive: -2.61%.

In the case of `Cc1ccc(CNC(=O)Nc2cc(C(=O)NCc3ccc(C(C)C)cc3)ccc2N2CCCC2)cc1`, the activation was inactive: -13.2%.

`CC(C)(C)OC(=O)N1CCC(c2c(C(=O)NCCN3CCc4ccccc4C3)cnn2-c2ccc(F)cc2)CC1`: the activation is inactive: -5.58%. As for `CCCCOc1ccc(C(=O)Nc2ccc(-c3cc4ccccc4oc3=O)cc2)cc1`, the figure is inactive: 1.08%; as for `Cc1cc(C)cc(-n2c(C)cc(C(=O)C(=O)Nc3ccccc3F)c2C)c1`, inactive: -10.2%. As for `CCN1C(=O)c2ccccc2Sc2ccc(NC(=O)N3CCN(c4cc(C)ccc4C)CC3)cc21`, the figure is inactive: -9.13%. As for `CCOC(=O)c1ccc(NC(=O)C(CC)Sc2nc3ccncc3[nH]2)cc1` (configuration not stated), the figure is inactive: 15.9%; as for `COc1ccccc1C(=O)N1c2ncnn2C2(CCCCC2)[C@@H]2CCCC[C@@H]21`, inactive: -4.42%; as for `COc1ccc(Cn2c(C(=O)O)c(CNC3CCCC3)c3ccc(OC)cc32)cc1`, inactive: 19.6%. On to `CCOc1ccc(-c2nn(-c3ccccc3)cc2C2NC(=O)NC(C)=C2C(=O)OC(C)C)cc1` (configuration not stated), for which the activation is inactive: -0.713%. To `CSc1nc(Nc2ccc(F)cc2)cc(-c2ccccc2)n1` belongs inactive: 30.9%; to `CCOc1ccc(CC(=O)NCCc2sc3nc(-c4ccc(F)cc4)nn3c2C)cc1`, inactive: -28.7%. As for `Cc1ccc2ncc(C(=O)c3ccc(C)c(C)c3)c(S(=O)(=O)c3ccc(F)cc3)c2c1`, the figure is inactive: -14.2%; as for `Cc1c(C)n(CCN(C)C)c2ccc(C(=O)OCCN(C)C)cc12`, inactive: 8.54%; as for `CC(C)N(Cc1nc(-c2ccc(Cl)cc2)no1)C(=O)c1ccc(C(C)(C)C)cc1`, inactive: -2.3%. To `Cc1ccccc1Cn1c(SCc2ccc(C(=O)NC3CCCCC3)cc2)nc2ccncc21` belongs inactive: -1.65%; to `Cc1nc(SCc2cccc(Cl)c2)nc2c1CCCC2`, inactive: -0.942%; to `Cc1ccc(CNc2nnc(C)c3nnn(Cc4ccc(F)cc4)c23)cc1`, inactive: 10.1%. Turning to `COc1cc(NC(=O)Cn2c(=O)cc(C)c3c(C)nn(-c4ccc(C)cc4)c32)cc(OC)c1`, the activation is inactive: 7.4%. To `CC(=O)N1c2ccc(S(=O)(=O)N3CCCCCC3)cc2CC1C(=O)NCc1cccc(C)c1` (configuration not stated) belongs inactive: -4.98%; to `CCOc1ccc(-c2cc3nc(C4CCN(C(=O)OC(C)(C)C)CC4)c(C(=O)Nc4cccc(CC)c4)cn3n2)cc1`, inactive: -3.56%; to `Fc1ccc(NCc2ccccc2-c2nnc(-c3ccccc3Cl)o2)cc1`, inactive: -18.6%. As for `CC1=C(c2ccc(Cl)cc2)S(=O)(=O)N=C1N1CCN(c2cccc(C)c2C)CC1`, the figure is inactive: -3.31%. To `Cc1cccc(NC(=O)CSc2nc3ccc(NC(=O)c4ccccc4)cc3s2)c1` belongs active: 60.2%.
